Source: the supplement of paper PMC3334620
The full ranking holds about 33,000 sequences; the median of “E-score (-0.5 to 0.5)” is about -0.01, and the highest 2% start at about 0.26. This is one part of the list.

Biological target: Ste12 (UniProt P13574)
Experiment: PBM E-score (8-mer binding enrichment) (E-score (-0.5 to 0.5)); higher = stronger / more preferred TF binding; most listed sequences are background and not binding sites
Details: protein concentration: 200 nM; construct: GST-DNA-binding domain
Outline: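 Yeast transcription factors, full-length or as DNA-binding domains, were expressed with a GST tag using PURExpress in vitro transcription/translation. At about 100-200 nM they were applied to universal all-10-mer Agilent arrays, double-stranded by primer extension on fresh or once-stripped slides. Fluorescent anti-GST detected bound protein, and masliner normalised the scans. E-scores for ungapped eight-base words, pooled with reverse complements, came from the Universal PBM Analysis Suite.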

Point of comparison: AATTCCTC, “PBM E-score” value -0.145. Against it:
- AACTTAAG — higher, 0.0435
- AGGGAAAG — higher, 0.0388
- CGGTGGAA — higher, -0.0833
- CTTGGATC — higher, -0.112
- ACGCAACT — higher, 0.0274
- GAATATCC — higher, -0.0779
- AGACGACT — higher, -0.13
- GGATATCC — higher, -0.0826
- CGGAACTA — higher, 0.0915
- ATTGCTAA — higher, 0.0939
- CACATTAG — higher, -0.116
- AAGCGCAA — higher, -0.0268
- AGACCAGA — higher, 0.00564
- GTAGCTAC — lower, -0.201
- CCGCCTAG — higher, -0.0107
- AATGGTCC — higher, -0.0695
- AGCAGTAG — lower, -0.168
- ATTCCCTG — higher, 0.0875
- CGCCTGAC — higher, 0.0268
- GTCGAGCA — lower, -0.222
- GATCCGCC — higher, -0.0897
- ACTGTGGA — higher, -0.123
- AGGGAGGA — lower, -0.192
- GCGGATAC — higher, 0.0575
- ATTGGTCC — higher, 0.0259
- CACCAAGA — higher, -0.103
- ATGGCGGA — lower, -0.162
- CGTGCGCC — higher, 0.073
- ATGTGCGA — higher, 0.0368
- CACGCTCA — higher, 0.0152
- AACGTTGG — higher, 0.038
- AGGAGACT — lower, -0.215
- ATAAGTCG — higher, -0.0266
- AACCCTCC — higher, -0.0183
- AGTGGCAA — higher, -0.108
- GCCCAAAA — higher, 0.121
- ATTTTTTG — higher, 0.222
- GGGTAGGA — lower, -0.227
- CTAAAGGA — higher, -0.0733
- CCGAACGG — higher, -0.0282
- CTCCACAA — higher, 0.00925
- GCAAGCGA — higher, 0.0255
- CGACAACC — higher, -0.103
- AAGGGATA — higher, 0.0881
- AACCAAGA — higher, 0.165
- AATTTCTC — higher, 0.0129
- TCCACCAA — higher, -0.0785
- ATGGACTG — lower, -0.212
- CTGAAAGC — higher, 0.085
- CAGCTCGC — higher, 0.0242
- AGTTGAAT — higher, 0.226
- AAAGAGCT — higher, -0.0369
- GGGGGTAC — lower, -0.16
- AGCAAAGA — higher, 0.0373
- AGCTATAG — higher, -0.0842
- CGACTACA — higher, -0.0813
- GAGTACTA — lower, -0.196
- GAAATTTC — higher, 0.0669
- AGGACCGC — higher, -0.00188
- AGTTTCCA — higher, 0.212
- ATTGCTGG — lower, -0.146
- ACGTCTTG — higher, -0.103
- TATCCACA — higher, -0.0717
- CTATGGAC — higher, -0.0398
- AATAATCC — higher, 0.0844
- GTACCTAA — higher, -0.0961
- ACCCGCCC — higher, 0.361
- AACTCTGG — higher, -0.0542
- CGTAGCTA — lower, -0.295
- AACCCTGC — higher, -0.123
- ACAATCCT — higher, -0.0366
- CACATATG — higher, -0.0469
- ATGTGTCA — higher, 0.119
- CTGGCTAC — higher, -0.123
- CGGGCTGC — higher, -0.0993
- GATTTATA — higher, 0.182
- CAGTCATG — higher, -0.0234
- CAATACTA — higher, -0.117
- CATTCTAC — higher, 0.00037
- AACGACTT — lower, -0.22
- CTTAGAAG — higher, -0.0859
- AGCGTATG — higher, -0.0619
- GACTCCTA — higher, -0.0887
- AGCATCGC — higher, -0.0384
- AAACGTTG — higher, 0.111
- CCCGGGTA — higher, 0.0597
- CCCCACAG — lower, -0.148
- GATCTACC — higher, -0.0505
- ACGTCGTG — higher, -0.0823
- GTAGGCAA — higher, -0.144
- AGAGGCTA — higher, -0.0372
- GTTCCTCA — higher, -0.0775
- AGCAATAG — lower, -0.204
- AACATACA — higher, 0.0906
- CGGCTTAA — higher, 0.225
- ACCGTGCG — higher, -0.102
- CCCAAAAC — higher, 0.253
- AGCCCCTC — higher, -0.00471
- CATTATGA — higher, -0.0123
- CACTAGTG — higher, -0.00848
- GTCGTTAA — higher, -0.0115
- CACGGTAG — lower, -0.184
- ACCACTTG — higher, 0.0214
- CAAGGATA — higher, -0.0606
- CCAGCTTC — higher, -0.109
- CGCACTAC — lower, -0.175
- CCCCTACG — lower, -0.263
- GGCGAAGA — lower, -0.173
- CTGAATAA — higher, 0.0613
- TAATTATA — higher, 0.251
- AGACGGGG — higher, -0.0599
- AGTGGATA — higher, 0.0171
- TCCGATAA — higher, -0.0449
- ACTATTGA — higher, 0.128
- GAGTATGA — higher, 0.169
- AGATTCGG — higher, 0.00429
- AGCACATC — higher, -0.0218
- CGGGGGAG — lower, -0.184
- TGCACTAA — higher, -0.0735
- ATCGCTTA — lower, -0.147
- GACGGATA — higher, -0.0128
- ATATAGTA — higher, 0.123
- GCCGCGAA — higher, 0.0341
- CTAATAGA — higher, 0.0822
- GACGAAGC — higher, 0.0172
- GGAACGAC — lower, -0.153
- CATCCCCC — higher, -0.0111
- CGTCCGAC — lower, -0.149
- TCTGCGCA — higher, -0.137
- CTCATAAG — higher, 0.0456
- AGAGGTAC — lower, -0.167
- ACAAGACC — lower, -0.192
- AAGTAGAA — higher, 0.072
- ACCAGGAG — lower, -0.248
- CGAAATAG — higher, -0.097
- CTCGAAGC — lower, -0.273
- GTCGTGGA — lower, -0.337
- CCTATATC — higher, -0.0237
- ACATGAGT — higher, -0.0781
- ACTTGAGC — lower, -0.267
- GATTTTAC — higher, 0.0343
- CAGTACTA — higher, 0.00921
- CCGTGTAC — higher, -0.0839
- ATAACCCC — higher, 0.0553
- AATAGACT — higher, 0.0457
- ACTCTCCC — higher, -0.0353
- ACCAAGGA — higher, 0.0667
- ATCGGGGC — higher, 0.0313
- AAGCGCGA — higher, 0.0291
- GACATAGC — higher, -0.101
- ATCGCACG — higher, -0.0146
- GAGCGATC — higher, -0.105
- TCGGCAAA — higher, 0.0674
- CTTCCATC — higher, 0.142
- GATCTTGC — higher, -0.0499
- CGACCAGA — higher, 0.0249
- ATCAGTTG — higher, 0.0486
- AAAATGTG — higher, 0.112
- CCGTGATA — higher, -0.0518
- GAGTGGAC — lower, -0.193
- GCGATGAC — higher, 0.0974
- TCACCCCA — higher, 0.233
- AATATCCA — higher, 0.0334
- AGTATGAC — higher, 0.0943
- AATCCACA — higher, 0.0762
- CCGTCAAC — higher, -0.136
- AGGTTGGG — higher, -0.0348
- CACCCCAG — higher, -0.0424
- AACCCACG — higher, 0.00698
- GTCGTGTA — higher, 0.011
- ATATAGAT — higher, 0.179
